From PubChem BioAssay AID652104 (National Center for Advancing Translational Sciences (NCATS), 2013)
In all, about 410,000 compounds went through this assay and about 7,200 (1.8%) were called active. The shares of active, inactive and inconclusive entries below differ from those in the screen. Calls come from the whole dose curve; as a rule, active = well fitted activation curve with a large enough effect; inconclusive = small, poorly fitted or top-dose-only effect, or another doubt; inactive = no such curve, though single readings can be large or run the other way. Potencies of inconclusive entries are left out as doubtful fits.

Assay: qHTS of TDP-43 Inhibitors; note: nearly all actives have a fitted effect of over 50% in size
Conditions: TDP-43 expressing yeast growth rescue, BacTiter-Glo, 24 h; series mostly up to 46.1 µM
Outline: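 Galactose-induced TDP-43 yeast, OD600=0.02, compound pinned; 24 hr, 30 deg C; BacTiter-Glo luminescence for growth. Inhibitors of TDP-43 toxicity read as activators.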
Potency is the fitted concentration of half-maximal effect; tags give direction and shape of the fitted curve.

**Q.** With `COc1ccc2[nH]cc(CCN=C(NC(=O)c3ccccc3C)Nc3nc(C)cc(C)n3)c2c1` as the compound, how does the Potency read?
**A.** inactive

**Q.** With `O=C(CCCCn1c(=O)[nH]c2ccsc2c1=O)NCC1CCCO1` (stereo not drawn) as the compound, how does the Potency read?
**A.** inconclusive [activator, partial curve, poor fit]

**Q.** With `Cc1c(C(=O)N2CCC(C)CC2)c(S(=O)(=O)Nc2ccc(OC(F)(F)F)cc2)c(C)n1C` as the compound, how does the Potency read?
**A.** inconclusive [activator, partial curve, poor fit]

**Q.** Which Potency does the source give for `Cc1ccc(S(=O)(=O)NC(=O)COc2ccccc2C)cc1` here?
**A.** inconclusive [activator, single point]

**Q.** With `Cc1cc(Nc2cc(F)ccc2C)nc(-n2nc(C)cc2C)n1` as the compound, how does the Potency read?
**A.** inconclusive [activator, partial curve]

**Q.** With `Clc1ccccc1Nc1nc(NCc2cccs2)nc2ccsc12` as the compound, how does the Potency read?
**A.** inconclusive [activator, partial curve, poor fit]

**Q.** For `COc1cc(NC(=O)Cn2nc3c(cc2=O)CC(C)CC3)cc(OC)c1OC` (stereo not drawn), which Potency is on record?
**A.** inactive

**Q.** Which Potency does the source give for `Cc1cc2nccc(-c3ccc(OCCCF)cc3)n2n1` here?
**A.** inconclusive [activator, single point]

**Q.** For `Cc1nc(-c2ccc(F)cc2)c(CC(=O)N(C)CC(=O)Nc2ccccc2Br)s1`, which Potency is on record?
**A.** inconclusive [activator, partial curve, poor fit]

**Q.** Which Potency does the source give for `Brc1ccc(-c2nc3ccc(Br)cn3c2Cc2ccccc2)cc1` here?
**A.** inactive

**Q.** Which Potency does the source give for `Cc1ccc(C2C(C(=O)c3cc4ccccc4o3)=C(O)C(=O)N2CCN2CCOCC2)cc1` (stereo not drawn) here?
**A.** inactive

**Q.** For `O=C(CSCc1ccc(F)cc1)Nc1ccc(N2CCOCC2)cc1N1CCOCC1`, which Potency is on record?
**A.** inconclusive [activator, partial curve]

**Q.** With `Cc1ccc(NS(=O)(=O)c2ccc(-c3cc(C)no3)cc2)c(Br)c1` as the compound, how does the Potency read?
**A.** active: 22.4 µM

**Q.** For `O=C(NC1CCCC1)C(c1ccncc1)N(Cc1ccccc1)C(=O)c1ccc(-c2ccccc2)[nH]1` (stereo not drawn), which Potency is on record?
**A.** inconclusive [activator, partial curve]

**Q.** With `COc1cccc(/C=C/C(=O)NCC2CCCCC2)c1` as the compound, how does the Potency read?
**A.** inconclusive [activator, partial curve]

**Q.** With `O=C(Cc1ccccc1)c1ccc(Cl)cc1` as the compound, how does the Potency read?
**A.** inconclusive [activator, partial curve]

**Q.** With `Cc1ccc(C)c(OCC(=O)NC2CCCCCC2)c1` as the compound, how does the Potency read?
**A.** active: 11.2 µM

**Q.** Which Potency does the source give for `CCn1c(=NC(=O)CCS(=O)(=O)c2ccccc2)sc2cccc(OC)c21` here?
**A.** inconclusive [activator, single point]

**Q.** For `O=C(Nc1cccc(NC(=O)c2ccccc2Cl)c1)c1cccs1`, which Potency is on record?
**A.** active: 22.4 µM

**Q.** For `COc1ccccc1CC(=O)N1CCN(c2cccc(Cl)c2)CC1`, which Potency is on record?
**A.** active: 12.6 µM

**Q.** For `O=C(CSc1nccn1Cc1ccccc1)Nc1ccc2c(c1)OCCO2`, which Potency is on record?
**A.** inconclusive [activator, single point]

**Q.** With `O=C(CSc1nnc(COc2ccccc2)o1)Nc1cc(C(F)(F)F)ccc1Cl` as the compound, how does the Potency read?
**A.** inconclusive [activator, single point]

**Q.** For `Cc1ccc(/C=C/C(=O)c2ccc(N3CCOCC3)cc2)s1`, which Potency is on record?
**A.** inconclusive [activator, single point]

**Q.** With `CNC(=S)N1N=C(c2ccc(C)cc2)CC1c1ccc(OC)c(OC)c1` (stereo not drawn) as the compound, how does the Potency read?
**A.** inactive

**Q.** Which Potency does the source give for `Cc1ccccc1NC(=O)CSc1ccc(-c2cccs2)nn1` here?
**A.** inconclusive [activator, partial curve]

**Q.** With `CC(=O)c1ccc(NC(=O)CN2C(=O)COc3ccc(Cl)cc32)cc1` as the compound, how does the Potency read?
**A.** inconclusive [activator, partial curve]

**Q.** Which Potency does the source give for `CC1CCCN(c2ncnc3c2cnn3-c2ccc(Cl)cc2)C1` (stereo not drawn) here?
**A.** active: 14.1 µM

**Q.** Which Potency does the source give for `O=S(=O)(c1ccc(-c2cnc(C3CC3)o2)cc1)N1CCN(c2ccccc2)CC1` here?
**A.** inconclusive [activator, full curve, poor fit]

**Q.** For `CCNc1oc(/C=C/c2ccc(OCC)cc2)nc1C#N`, which Potency is on record?
**A.** inconclusive [activator, partial curve]

**Q.** For `Cc1ccc(-c2cn(-c3ccccc3)c(SCC(N)=O)n2)cc1C`, which Potency is on record?
**A.** inconclusive [activator, partial curve]

**Q.** Which Potency does the source give for `COc1cccc(NC(=O)N2CCc3ccccc3C2)c1` here?
**A.** inconclusive [activator, partial curve]

**Q.** Which Potency does the source give for `CCSc1nnc2n1C(C)(C)Cc1ccccc1-2` here?
**A.** inconclusive [activator, partial curve]

**Q.** For `CCC1(C)Cc2c(sc3nc4n(c(=O)c23)CCCS4)CO1` (stereo not drawn), which Potency is on record?
**A.** inconclusive [activator, single point]

**Q.** For `O=[N+]([O-])c1ccccc1S(=O)(=O)Nc1cccc2cccnc12`, which Potency is on record?
**A.** inconclusive [activator, single point]

**Q.** Which Potency does the source give for `Cn1c(SCc2ccccc2)nc2ccsc2c1=O` here?
**A.** inconclusive [activator, single point]

**Q.** With `Cc1ccccc1CSCC(=O)Nc1ccccc1F` as the compound, how does the Potency read?
**A.** inconclusive [activator, single point]

**Q.** Which Potency does the source give for `O=C(NCCN1CCOCC1)c1cc2cc([N+](=O)[O-])ccc2s1` here?
**A.** inconclusive [activator, partial curve]

**Q.** For `COc1ccc(/C=N/n2c(N)c(S(=O)(=O)c3cccs3)c3nc4ccccc4nc32)cc1OC`, which Potency is on record?
**A.** inconclusive [activator, partial curve]

**Q.** With `COc1cc2c(cc1NS(=O)(=O)N1CCCC1)oc1ccccc12` as the compound, how does the Potency read?
**A.** inconclusive [activator, single point]

**Q.** With `Cc1cccc(CSc2ncccc2C(=O)O)c1` as the compound, how does the Potency read?
**A.** inconclusive [activator, partial curve, poor fit]

**Q.** Which Potency does the source give for `CCOC(=O)c1c(N)sc(C(O)(C(F)(F)F)C(F)(F)F)c1-c1ccccc1` here?
**A.** inconclusive [activator, single point]

**Q.** With `Cc1ccc(NC(=O)COc2ccc3oc4c(c3c2)CCCC4)cc1C` as the compound, how does the Potency read?
**A.** inactive

**Q.** With `COc1ccc(NC(=O)c2cc(-c3cc(F)ccc3OC(C)C)n[nH]2)c(C)c1` as the compound, how does the Potency read?
**A.** inconclusive [activator, partial curve, poor fit]
